From the supplement of paper PMC10126150
Sequences with one replicate were seen in a single cluster, so their values are uncertain.

Tested on: ATP
Test: switch fluorescence ratio, 500 uM ATP over buffer (Cy3 cluster intensity, sum of 5 cycles each) (fold (ratio)); higher = stronger signal-on switching upon ATP binding; sequences stand for … in TCGTCGGCAGCGTCAGATGTGTATAAGAGACAGTTTTTTTTTTTTTTTTTTTTTTTTT…TC
Settings: aptamer strand: ATP DNA aptamer (quencher-CACCTGGGGGAGTATTGCGGAGGAAGG + anchor), 100 nM annealed; ATP concentration: 500 uM; one replicate
Summary of the method: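 Switching-strand clusters labelled with Cy3 on a modified Illumina MiSeq flow-cell were annealed to 100 nM quencher-labelled ATP aptamer, imaged in selection buffer, and re-imaged after 15 min with 500 uM ATP at 22 °C. This was done over five cycles with NaOH stripping and re-annealing in between. The fluorescence ratio is summed target-cycle over summed buffer-cycle Cy3 intensity per cluster, averaged per switch-domain sequence, excluding clusters outside 100-1000 RFU.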
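Also: ATP exposure 15 min at 22 °C before imaging.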

| Sequence | switch fluorescence ratio |
| --- | --- |
| AATCAGTGTG | 1.01 |
| AATTGGCAGA | 1 |
| TAGGAAGGGA | 1 |
| CTGAGTCAGG | 1.02 |
| GTTTAGTGTT | 0.973 |
| CGAAATTGAA | 0.941 |
| GATGAAACAG | 1.01 |
| ACGATATTAG | 1.13 |
| ATACAGCGTG | 0.983 |
| AACGGCGACT | 1.09 |
| TCTATTCAGT | 1.02 |
| TACACACGTA | 1.33 |
| ATCTGCGGGT | 0.958 |
| CCTGTCGCGT | 1.38 |
| TGTGTTCAG | 0.965 |
| TCTTACATCC | 1.07 |
| AACGGGGCCC | 0.981 |
| GGTGACAGTA | 1.01 |
| CGCCAGCTGC | 1.17 |
| GGAGGGTGCT | 0.956 |
| TGGAAATGTA | 0.973 |
| CGAATGCTGT | 0.93 |
| GCTACACTTT | 0.985 |
| CCTAAACGGA | 1.01 |
| GCCGTCGAGG | 1.02 |

| Sequence | switch fluorescence ratio |
| --- | --- |
| TGTATTCAAA | 0.991 |
| GGGAACTTTG | 0.976 |
| GCGTCATTGC | 1.16 |
| ATTACTTGTC | 0.821 |
| TACCATTGTT | 1.01 |
| CTGCGCTATG | 1.62 |
| GCCGGTCATG | 0.991 |
| AGGCTTCGCA | 1.1 |
| CTGTGTTGCG | 0.962 |
| ATACAAAGGG | 1.01 |
| TTTACTGTCG | 1.02 |
| TGTATCGCAG | 0.983 |
| TCTGTTTTCC | 1.02 |
| TGGACAAGTG | 0.98 |
| CTCATTATCC | 1.03 |
| AGTTAGCGCT | 0.999 |
| CGATTTAGAC | 1.05 |
| CTGTCAGGTC | 1.02 |
| ATATTAAATT | 1.02 |
| GTAATAAGAA | 0.984 |
| GGATTTCTAA | 1 |
| AGATGAACCG | 1.1 |
| TATGTGTTCT | 1 |
| TTAAGAATAG | 1 |
| TTCGTTGACC | 0.999 |

| Sequence | switch fluorescence ratio |
| --- | --- |
| TAAAGGTGGG | 0.999 |
| CCGTAATGAT | 2.66 |
| TAAGGTTTTC | 1.04 |
| ATAACGGGCC | 1.07 |
| GCCACTGCGA | 1.15 |
| AGTCTTTGTG | 0.957 |
| ACGATAGCAT | 1.13 |
| ACTAGGGCAC | 1.04 |
| CGTTAACGTC | 0.991 |
| TTCGACGCGG | 1.13 |
| CATCATGCGT | 1 |
| ATTTTGCCCT | 0.998 |
| ATGTTGGGAG | 1.02 |
| TTGAGTCTGA | 0.955 |
| GTAGCTGGAA | 0.994 |
| ATAAGGCGTG | 0.987 |
| ACGTAGCTAG | 1.47 |
| AATGCCGTGC | 0.985 |
| ATTCATCTCA | 1 |
| CTCTGGTTTT | 0.997 |
| TTCATAATGC | 1.05 |
| AAAAGACAGA | 0.98 |
| GAAGTTGTAA | 1.01 |
| CATGAGTAG | 1.02 |
| TGGGATAATA | 0.989 |

| Sequence | switch fluorescence ratio |
| --- | --- |
| AAAGCGTGCT | 1.03 |
| AGTCCCGGC | 1.03 |
| TTTGCACTTG | 1 |
| ATATGTATAG | 1.05 |
| CATTGGCGAC | 1.03 |
| ATTGCGTTCG | 0.995 |
| GTCGGGGAAT | 1.02 |
| TTTAGCTTAC | 1.55 |
| TTATCATCC | 1.03 |
| TGTAATCTAA | 0.991 |
| GCGTCGTTGT | 1 |
| AGAGGTAATT | 0.985 |
| ATGGTAATTC | 0.968 |
| CGGGCGAACC | 0.991 |
| TATTGACCTG | 0.973 |
| ACGTGGGAC | 1.18 |
| GGATTCGTAG | 0.986 |
| GCTAGGTCAC | 1.01 |
| GACATAATTT | 0.987 |
| CCAGGGGG | 1.12 |
| TCGCCCCTAA | 1.03 |
| TAGTGTTTG | 1 |
| AATTGGTCGA | 1.03 |
| CACGGAAATT | 1.05 |
| CGTGATAAAA | 0.999 |

| Sequence | switch fluorescence ratio |
| --- | --- |
| TAAATTCCGT | 0.985 |
| CCTTCAAAAT | 1.07 |
| GGGGCAAGGC | 1.07 |
| TGCTGGCTGT | 0.989 |
| CTATAAGGCA | 1.06 |
| TCCCAAGGGA | 1.46 |
| AGCGTCTATC | 1.03 |
| AGAGCTGCTA | 1.03 |
| AGATGCACGT | 1 |
| GTGGTCCCTT | 0.981 |
| TTGGCTAGCA | 0.989 |
| TCTTATAAA | 1.02 |
| GGTCAGGGCA | 1 |
| GATTGTGAG | 0.952 |
| TGATCAATG | 0.995 |
| CACGCTACGC | 1.56 |
| AGTACGTGGA | 1.01 |
| ATGGCGTCAG | 1 |
| TTTCAGTAGG | 0.995 |
| GGGAGTCCAT | 0.99 |
| CATAACGTCG | 0.986 |
| TTGCAAAGTT | 1.01 |
| AATGGAGATC | 0.979 |
| GTATTGGGGT | 0.995 |
| TCGGGTCCTT | 1.03 |

| Sequence | switch fluorescence ratio |
| --- | --- |
| TGCGGCTTAG | 1.05 |
| TGTGACCTCT | 1.02 |
| ACCAAGCAGC | 1.16 |
| ATCTCATTGT | 0.967 |
| ACAATGTTCC | 1.14 |
| TCTATATTCT | 1 |
| GTGGAATGCA | 0.98 |
| CAGGGCACCT | 1.05 |
| GTGGGATTTA | 0.939 |
| GTCCTCGTCA | 0.985 |
| CCAGGTGCCC | 3.41 |
| CGCTATATGA | 1.9 |
| TTAATATATA | 0.994 |
| TCGGGTGCTA | 1.03 |
| AGTATGTCAA | 0.953 |
| GGTAACTGAT | 1.02 |
| CTTTGGCTGG | 1.01 |
| GAGTGGTTTC | 1.04 |
| TATCATAGAC | 0.99 |
| GAATCTAGCT | 1.01 |
| GGCCAGCATA | 1.06 |
| CGATCAACCC | 1.04 |
| ATTTCGCGTA | 1.01 |
| CAGTGCCCGC | 1.01 |
| GCACTTATGT | 0.996 |

| Sequence | switch fluorescence ratio |
| --- | --- |
| GTGGCGTTTC | 1.01 |
| GCGTGACTTG | 0.992 |
| TATAAATATA | 0.964 |
| ATGCCCTGGC | 0.993 |
| CATGACGGCA | 0.961 |
| AGCGCCTTTT | 1.01 |
| GGAGTAACTA | 1.01 |
| CGACGGGTGC | 2.93 |
| GACACATGGT | 0.947 |
| AGATTCGGGT | 0.995 |
| TGAGGCCGCT | 1.02 |
| ATCAATAACG | 1.01 |
| TAATATTATA | 0.979 |
| CCTGTGTAG | 1.06 |
| TAAAGCTGCA | 1.09 |
| CCCTTTGGTG | 2.11 |
| GGTACAGATA | 1.04 |
| ACTCACAAGC | 1.77 |
| CCTGGGAAGC | 1.1 |
| CTGGGGGCT | 1.01 |
| TTTTGGAACA | 0.996 |
| TTTGGTTAAA | 1.02 |
| CGTCCGTTTC | 1.5 |
| CAGAAAATAG | 1.06 |
| TATGGGGGAA | 0.987 |

| Sequence | switch fluorescence ratio |
| --- | --- |
| AAACTAGGAG | 0.984 |
| CGACTTTTTA | 0.996 |
| TCCTGGGGTG | 1.53 |
| GTTTGATACG | 1 |
| GGGTTGCGAG | 0.993 |
| TATGCAATCG | 1.05 |
| GTACATTTGT | 1.01 |
| ACTCGGAGGT | 1.01 |
| GGGATGGGG | 1 |
| TCTGGTAAGT | 1.02 |
| ATTTCGTAGA | 1.02 |
| TTTCGTGTTC | 1 |
| AAATGGACTT | 0.939 |
| AAGGAAGATT | 1.01 |
| CGGTCACGGT | 1.01 |
| TTCATAGTTA | 1.01 |
| TCGGGGTCAC | 0.988 |
| CCAATGCTCT | 1.63 |
| GGACTCTAGC | 1.05 |
| CCTCGACAGG | 2 |
| AGGTCAAAT | 1.02 |
| TTCTTATAGC | 1.04 |
| TTATAAAGTA | 1.01 |
| GAGCGTGTAG | 1.04 |
| AAGTGCAGAC | 1.08 |
